In PubChem BioAssay AID1963869 (Molecular Pharmacology Branch, DTP, NCI, 2024):
Certain results were filed several times, with different values. The list is limited to them. The source may hold further records. Values that stand side by side are repeated measurements in other runs, samples, wells, individuals or studies. Dates in brackets are months of testing. Brackets with × say how often a value occurs here.

Test system: KRAS patient-derived spheroids with HUVEC/MSC, viability
Assay: Anticancer human tumor 323965-272-R-J2-PDC patient-derived pancreatic carcinoma cell line growth inhibition [KRAS2]
Settings: for viability, T/C: stronger effect = lower value; for IC50: compound alone, run of 08/19/2021
Text: Multicellular complex tumor spheroid response to RAS pathway inhibitors in combination with a targeted agents in patient-derived cell lines with oncogenic KRAS variants from multiple cancer types
A high-throughput screen of multi-cell type tumor spheroids was designed to identify active combinations of targeted small molecules and KRAS pathway inhibitors. Complex spheroids include a stromal component modeled by human endothelial cells (HUVEC) and fibroblasts modeled by human mesenchymal stem cells (MSCs). The concentration ranges selected for each drug and investigational agent were based upon clinically achievable concentrations if the clinical Cmax of the agent was known.
Compounds. The drugs and investigational agents: BI-3406 (NSC825286), BAY-293 (NSC824723), batoprotafib (TNO155; NSC825523), sotorasib (AMG 510; NSC818433), MRTX1257 (NSC819558), elimusertib (BAY 1895344; NSC800525), molibresib (GSK525762; NSC774829), temuterkib (LY3214996; NSC803410), venetoclax (NSC766270), alisertib (NSC759677), olaparib (NSC753686), talazoparib (NSC767125), erdafitinib (NSC781556), ipatasertib (NSC767898), cabozantinib (NSC761068), nintedanib (NSC756659), abemaciclib (NSC768073), docetaxel (NSC628503), trametinib (NSC758246), and sapanisertib (NSC764658) were obtained from the National Cancer Institute (NCI) Developmental Therapeutics Program Chemical Repository. The FDA-approved anticancer drug set is available from the Developmental Therapeutics Program. […] The stock solutions were prepared in dimethyl sulfoxide (DMSO, Sigma-Aldrich, St. Louis, MO, cat. D2650) at 800-fold the tested concentration and stored at -70 degrees C prior to their use. All drugs and investigational agents were tested over a range starting from a high concentration at or near the clinical Cmax and decreasing in half-log increments. If the clinical Cmax for an agent had not been determined, the highest concentration tested was 10 microM.
Cell Culture. All cells were maintained in an incubator at 37 degrees C and 5% CO2 with 95% humidity. The PDC lines were cultured according to standard operating procedures established by the NCI PDMR (https://pdmr.cancer.gov/sops/default.htm). Briefly, all PDCs were thawed and cultured in Matrigel-coated flasks prepared with a working solution of 1X Ham's F-12 nutrient mix, without supplementation (Invitrogen, Waltham, MA, cat. 11765054), 100 U/mL penicillin-streptomycin (Invitrogen, cat. 15140122), and 2.5% Matrigel (Corning Inc., Corning, NY, cat. 354248) for the first three passages. All PDCs were cultured in complete DMEM/F-12 media containing advanced DMEM/F-12 (Invitrogen, cat. 12634028), 4.9% defined fetal bovine serum, heat inactivated (HyClone Laboratories Inc., Logan, UT, cat. SH30070.03HI), 389 ng/mL hydrocortisone (Sigma-Aldrich, cat. H4001), 9.7 ng/mL human EGF recombinant protein (Invitrogen, cat. PHG0313), 23.4 microg/mL adenine (Sigma-Aldrich, cat. A2786), 97.3 U/mL penicillin-streptomycin (Invitrogen, cat. 15140122), 1.9 mM L-glutamine (Invitrogen, cat. 25030081), and 9.7 microM Y-27632 dihydrochloride (Tocris Bioscience, Bristol, United Kingdom, cat. 1254). The PDCs were cultured in complete DMEM/F12 media without 9.7 microM Y-27632 dihydrochloride for at least two passages prior to the screen. The established cell line HOP-62 was cultured in RPMI 1640 medium, HEPES (Invitrogen, cat. 22400105) with 10% defined fetal bovine serum (HyClone Laboratories Inc., cat. SH30070.03) and 2 mM L-glutamine (Invitrogen, cat. 25030081). The pooled donor HUVEC were cultured in endothelial cell growth medium 2 (PromoCell, Heidelberg, Germany, cat. C-22011) and the hMSC were cultured in mesenchymal stem cell growth medium 2 (PromoCell, cat. C-28009). For all experiments, HUVEC and hMSC were used at passages </=5, while the malignant cell lines were used at passages </=15. […]
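Further: spheroids exposed to agents for 7 days.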
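Wherever viability, T/C is given: 100% = DMSO vehicle control viability.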

Compound	viability, T/C (compound alone 0.1 µM)	viability, T/C (compound alone 1 µM)	viability, T/C (compound alone 10 µM)	viability, T/C (compound alone 3.16 µM)	IC50	viability, T/C (compound alone 0.316 µM)	viability, T/C (compound alone 0.01 µM)
COc1cc2nc(C)nc(NC(C)c3cc(N)cc(C(F)(F)F)c3)c2cc1OC1CCOC1 (configuration not stated)	80.4, 87.7, 82.5, 98.1, 80, 77.1, 85.8, 79.8, 82.3, 78.3, 81.2% [2021-08] and 70.8, 70.1, 79.6, 72.1, 65.2, 76.9% [2021-09]	75, 75.9, 98.2, 71.2, 75.7, 68.6, 82.8, 70.3, 81.5, 78, 79% [2021-08] and 64.3, 70.6, 85.7, 71.7, 63.8, 59.8% [2021-09]	78.9, 83.3, 75.5, 93.1, 83.7, 71, 77.9 (2×), 78.6, 90.1, 62.2% [2021-08] and 71.6, 68.6, 69.1, 77.4, 67.2, 55.9% [2021-09]	–	–	–	–
CNCc1ccccc1-c1csc(C(C)Nc2nc(C)nc3cc(OC)c(OC)cc23)c1 (configuration not stated)	87.1, 80.6, 92.3, 91.2, 93.2, 83.6, 87.9, 92, 100, 89% [2021-08] and 93.6, 87.3, 91.1, 102, 73.2, 86.7% [2021-09]	–	82.9, 0.31 (2×), 0.32, 5.31, 8.31, 0.21 (2×), 0.23% [2021-08] and 0.21%, 0.19%, 0.16% [2021-09]	83.4, 88.8, 97.7, 96.2, 98.9, 87.7, 85, 91.3, 103, 83.6% [2021-08] and 80.3, 81.5, 88.2, 82, 74.3, 83.5% [2021-09]	> 10 µM, 5.05 µM, 5.26 µM, 5.49 µM, 5.74 µM, 5.08 µM	–	–
C=CC(=O)N1CCN(c2nc(OCC3CCCN3C)nc3c2CCN(c2cccc4cccc(C)c24)C3)CC1CC#N (configuration not stated)	–	–	–	98.2, 32.5, 32.2, 31.2, 20.8, 23.3, 22.7, 24.7, 9.86, 14.9, 12% [2021-08] and 3.61, 12.2, 11, 9.84, 5.39, 2.47% [2021-09]	> 3.16 µM, 1.55 µM, 1.14 µM, 1.64 µM, 1.53 µM, 1.32 µM	64.5 (2×), 60.4, 61.1, 58.8, 51.7, 63.4, 54.1, 61.2, 60.9, 59% [2021-08] and 54.4, 114, 60.5, 48.8, 50, 50.8% [2021-09]	–
CC1OCC2(CCN(c3cnc(Sc4ccnc(N)c4Cl)c(N)n3)CC2)C1N (configuration not stated)	61, 86.2 (2×), 76.8, 79.8, 69.6, 75.2, 76.2, 71.3, 78.4, 77.7% [2021-08] and 81.4, 73.4, 78.6, 76.4, 78.3, 81, 77.5, 78% [2021-09]	85.6, 101, 99, 50.2, 52.6, 51.5, 44.1, 52.5, 48.2, 49.3, 43.7% [2021-08] and 52, 42.3, 62.5, 34.8, 45.2, 39.4, 37.5, 40.7, 50.3% [2021-09]	39.8, 103, 33, 36.1, 29.8, 35.2, 28.1, 32.4, 33.2, 28.8, 22.3% [2021-08] and 19, 25.9, 16.3, 14.7 (2×), 16.1, 18.7, 24.1% [2021-09]	40, 35.8, 36.7, 35.6, 37.6, 42.8, 40.6, 39.8, 40.5, 33.5, 19.3% [2021-08] and 34, 27.4, 36.3, 17.9, 17.6, 23.9, 23.8, 24.7, 38% [2021-09]	2.08 µM, > 10 µM, 2.2 µM, 695 nM, 1.17 µM, 1.35 µM	–	–
COC(=O)c1ccc2c(C(=Nc3ccc(N(C)C(=O)CN4CCN(C)CC4)cc3)c3ccccc3)c(O)[nH]c2c1	–	–	38.3, 38.8, 98.3, 89.4, 105%	–	–	–	–
CCN1CCN(Cc2ccc(Nc3ncc(F)c(-c4cc(F)c5nc(C)n(C(C)C)c5c4)n3)nc2)CC1	–	–	–	–	–	–	105, 96.9, 96.3, 95.7, 79.8%
